Source: paper PMC6387754, “Dual mechanism of TRKB activation by anandamide through CB1 and TRPV1 receptors” (PeerJ, 2019)

Target: T1, CB1 receptor (rat (endogenous in primary cortical …, UniProt P20272))
T1 construct: cannabinoid receptor CB1, endogenous in rat primary cortical cells; precipitated with anti-CB1; source: endogenous, lysate of primary cortical cultures of E18 rat embryos (DIV8)
Test: co-IP; lysates of DIV8 rat cortical cultures (lysis buffer with 1% NP-40, 137 mM NaCl) incubated overnight at 4 °C with anti-CB1 or anti-TRKB (1 µg antibody / 500 µg total protein), Protein G-sepharose, washed 3 times; blot with anti-TRPV1; no-antibody negative control; TRPV1 precipitated with anti-TRPV1 as total
Details: partners not purified

ratio of CB1-coupled TRPV1 compared to total TRPV1: 27%
B1: vanilloid receptor TRPV1 (receptor)
chain: not shown
notes: TRPV1 (vanilloid receptor, VR1), endogenous in rat primary cortical cells; band at 100 kDa on the blot; also called VR1; source: endogenous, lysate of primary cortical cultures of E18 rat embryos (DIV8)
